Some of the results follow. Binding of human transcription factors and regulators to the viral nucleoprotein by AlphaScreen, crude cell-free proteins, amounts not normalised, one pass. Fold of the Venus control; higher = more signal. No active / inactive call. Single-pass screen; sequences are the whole Swiss-Prot entries looked up by name.
B1: ETV7, Q9Y603 (protein)
chain: MQEGELAISPISPVAAMPPLGTHVQARCEAQINLLGEGGICKLPGRLRIQPALWSREDVLHWLRWAEQEYSLPCTAEHGFEMNGRALCILTKDDFRHRAPSSGDVLYELLQYIKTQRRALVCGPFFGGIFRLKTPTQHSPVPPEEVTGPSQMDTRRGHLLQPPDPGLTSNFGHLDDPGLARWTPGKEESLNLCHCAELGCRTQGVCSFPAMPQAPIDGRIADCRLLWDYVYQLLLDTRYEPYIKWEDKDAKIFRVVDPNGLARLWGNHKNRVNMTYEKMSRALRHYYKLNIIKKEPGQKLLFRFLKTPGKMVQDKHSHLEPLESQEQDRIEFKDKRPEISP
B2: ZSCAN5A, Q9BUG6 (protein)
chain: MAANCTSSWSLGESCNRPGLELPRSMASSETQLGNHDVDPEISHVNFRMFSCPKESDPIQALRKLTELCHLWLRPDLHTKEQILDMLVMEQFMISMPQELQVLVMMNGVQSCKDLEDLLRNNRRPKKWSVVTFHGKEYIVQDSDIEMAEAPSSVRDDLKDVSSQRASSVNQMRPGEGQAHRELQILPRVPALSRRQGEDFLLHKSIDVTGDPKSLRPKQTLEKDLKENREENPGLTSPEPQLPKSPTDLVRAKEGKDPPKIASVENVDADTPSACVVEREASTHSGNRGDALNLSSPKRSKPDASSISQEEPQGEATPVGNRESPGQAGMNSIHSPGPASPVSHPDGQEAKALPPFACDVCEKRFTCNSKLVIHKRSHTGERLFQCNLCGKRFMQLISLQFHQRTHTGERPYTCDVCQKQFTQKSYLKCHKRSHTGEKPFECKDCKKVFTYRGSLKEHQRIHSGEKPYKCSKCPRAFSRLKLLRRHQKTHPEATSQ
B3: HEYL, Q9NQ87 (protein)
chain: MKRPKEPSGSDGESDGPIDVGQEGQLSQMARPLSTPSSSQMQARKKHRGIIEKRRRDRINSSLSELRRLVPTAFEKQGSSKLEKAEVLQMTVDHLKMLHATGGTGFFDARALAVDFRSIGFRECLTEVIRYLGVLEGPSSRADPVRIRLLSHLNSYAAEMEPSPTPTGPLAFPAWPWSFFHSCPGLPALSNQLAILGRVPSPVLPGVSSPAYPIPALRTAPLRRATGIILPARRNVLPSRGASSTRRARPLERPATPVPVAPSSRAARSSHIAPLLQSSSPTPPGPTGSAAYVAVPTPNSSSPGPAGRPAGAMLYHSWVSEITEIGAF
B4: MYBL2, P10244 (protein)
chain: MSRRTRCEDLDELHYQDTDSDVPEQRDSKCKVKWTHEEDEQLRALVRQFGQQDWKFLASHFPNRTDQQCQYRWLRVLNPDLVKGPWTKEEDQKVIELVKKYGTKQWTLIAKHLKGRLGKQCRERWHNHLNPEVKKSCWTEEEDRIICEAHKVLGNRWAEIAKMLPGRTDNAVKNHWNSTIKRKVDTGGFLSESKDCKPPVYLLLELEDKDGLQSAQPTEGQGSLLTNWPSVPPTIKEEENSEEELAAATTSKEQEPIGTDLDAVRTPEPLEEFPKREDQEGSPPETSLPYKWVVEAANLLIPAVGSSLSEALDLIESDPDAWCDLSKFDLPEEPSAEDSINNSLVQLQASHQQQVLPPRQPSALVPSVTEYRLDGHTISDLSRSSRGELIPISPSTEVGGSGIGTPPSVLKRQRKRRVALSPVTENSTSLSFLDSCNSLTPKSTPVKTLPFSPSQFLNFWNKQDTLELESPSLTSTPVCSQKVVVTTPLHRDKTPLHQKHAAFVTPDQKYSMDNTPHTPTPFKNALEKYGPLKPLPQTPHLEEDLKEVLRSEAGIELIIEDDIRPEKQKRKPGLRRSPIKKVRKSLALDIVDEDVKLMMSTLPKSLSLPTTAPSNSSSLTLSGIKEDNSLLNQGFLQAKPEKAAVAQKPRSHFTTPAPMSSAWKTVACGGTRDQLFMQEKARQLLGRLKPSHTSRTLILS
B5: PEX14, O75381 (protein)
chain: MASSEQAEQPSQPSSTPGSENVLPREPLIATAVKFLQNSRVRQSPLATRRAFLKKKGLTDEEIDMAFQQSGTAADEPSSLGPATQVVPVQPPHLISQPYSPAGSRWRDYGALAIIMAGIAFGFHQLYKKYLLPLILGGREDRKQLERMEAGLSELSGSVAQTVTQLQTTLASVQELLIQQQQKIQELAHELAAAKATTSTNWILESQNINELKSEINSLKGLLLNRRQFPPSPSAPKIPSWQIPVKSPSPSSPAAVNHHSSSDISPVSNESTSSSPGKEGHSPEGSTVTYHLLGPQEEGEGVVDVKGQVRMEVQGEEEKREDKEDEEDEEDDDVSHVDEEDCLGVQREDRRGGDGQINEQVEKLRRPEGASNESERD
B6: JAK2, O60674 (protein)
chain: MGMACLTMTEMEGTSTSSIYQNGDISGNANSMKQIDPVLQVYLYHSLGKSEADYLTFPSGEYVAEEICIAASKACGITPVYHNMFALMSETERIWYPPNHVFHIDESTRHNVLYRIRFYFPRWYCSGSNRAYRHGISRGAEAPLLDDFVMSYLFAQWRHDFVHGWIKVPVTHETQEECLGMAVLDMMRIAKENDQTPLAIYNSISYKTFLPKCIRAKIQDYHILTRKRIRYRFRRFIQQFSQCKATARNLKLKYLINLETLQSAFYTEKFEVKEPGSGPSGEEIFATIIITGNGGIQWSRGKHKESETLTEQDLQLYCDFPNIIDVSIKQANQEGSNESRVVTIHKQDGKNLEIELSSLREALSFVSLIDGYYRLTADAHHYLCKEVAPPAVLENIQSNCHGPISMDFAISKLKKAGNQTGLYVLRCSPKDFNKYFLTFAVERENVIEYKHCLITKNENEEYNLSGTKKNFSSLKDLLNCYQMETVRSDNIIFQFTKCCPPKPKDKSNLLVFRTNGVSDVPTSPTLQRPTHMNQMVFHKIRNEDLIFNESLGQGTFTKIFKGVRREVGDYGQLHETEVLLKVLDKAHRNYSESFFEAASMMSKLSHKHLVLNYGVCVCGDENILVQEFVKFGSLDTYLKKNKNCINILWKLEVAKQLAWAMHFLEENTLIHGNVCAKNILLIREEDRKTGNPPFIKLSDPGISITVLPKDILQERIPWVPPECIENPKNLNLATDKWSFGTTLWEICSGGDKPLSALDSQRKLQFYEDRHQLPAPKWAELANLINNCMDYEPDFRPSFRAIIRDLNSLFTPDYELLTENDMLPNMRIGALGFSGAFEDRDPTQFEERHLKFLQQLGKGNFGSVEMCRYDPLQDNTGEVVAVKKLQHSTEEHLRDFEREIEILKSLQHDNIVKYKGVCYSAGRRNLKLIMEYLPYGSLRDYLQKHKERIDHIKLLQYTSQICKGMEYLGTKRYIHRDLATRNILVENENRVKIGDFGLTKVLPQDKEYYKVKEPGESPIFWYAPESLTESKFSVASDVWSFGVVLYELFTYIEKSKSPPAEFMRMIGNDKQGQMIVFHLIELLKNNGRLPRPDGCPDEIYMIMTECWNNNVNQRPSFRDLALRVDQIRDNMAG

These binders were tested against nucleoprotein N of Crimean-Congo hemorrhagic fever virus (assay: AlphaScreen luminescence signal relative to Venus negative control (fold); higher = stronger binding to CCHFV N).
Protocol: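 AlphaScreen binding of cell-free made, FLAG-GST-tagged human transcription factors and regulators (crude translation products) to biotinylated N protein; signal as fold of the FLAG-GST-Venus control. One pass.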

Binder | AlphaScreen luminescence signal
B1 | 3.3
B2 | 5.49
B3 | 1.77
B4 | 3.91
B5 | 29.7
B6 | 2.88
